Measurements taken from paper PMC4336329 (PLoS ONE, 2015).
The whole screen tested about 310,000 compounds, of which about 2,200 (0.71%) showed an effect of 50% or more. The effect is printed as a negative number. This is one part of the list.

target: human ether-à-go-go-related gene (hERG) potassium channel (human, UniProt Q12809); test: primary screen, population patch clamp on CHO cells stably expressing hERG
Sequence (Q12809 whole entry, looked up): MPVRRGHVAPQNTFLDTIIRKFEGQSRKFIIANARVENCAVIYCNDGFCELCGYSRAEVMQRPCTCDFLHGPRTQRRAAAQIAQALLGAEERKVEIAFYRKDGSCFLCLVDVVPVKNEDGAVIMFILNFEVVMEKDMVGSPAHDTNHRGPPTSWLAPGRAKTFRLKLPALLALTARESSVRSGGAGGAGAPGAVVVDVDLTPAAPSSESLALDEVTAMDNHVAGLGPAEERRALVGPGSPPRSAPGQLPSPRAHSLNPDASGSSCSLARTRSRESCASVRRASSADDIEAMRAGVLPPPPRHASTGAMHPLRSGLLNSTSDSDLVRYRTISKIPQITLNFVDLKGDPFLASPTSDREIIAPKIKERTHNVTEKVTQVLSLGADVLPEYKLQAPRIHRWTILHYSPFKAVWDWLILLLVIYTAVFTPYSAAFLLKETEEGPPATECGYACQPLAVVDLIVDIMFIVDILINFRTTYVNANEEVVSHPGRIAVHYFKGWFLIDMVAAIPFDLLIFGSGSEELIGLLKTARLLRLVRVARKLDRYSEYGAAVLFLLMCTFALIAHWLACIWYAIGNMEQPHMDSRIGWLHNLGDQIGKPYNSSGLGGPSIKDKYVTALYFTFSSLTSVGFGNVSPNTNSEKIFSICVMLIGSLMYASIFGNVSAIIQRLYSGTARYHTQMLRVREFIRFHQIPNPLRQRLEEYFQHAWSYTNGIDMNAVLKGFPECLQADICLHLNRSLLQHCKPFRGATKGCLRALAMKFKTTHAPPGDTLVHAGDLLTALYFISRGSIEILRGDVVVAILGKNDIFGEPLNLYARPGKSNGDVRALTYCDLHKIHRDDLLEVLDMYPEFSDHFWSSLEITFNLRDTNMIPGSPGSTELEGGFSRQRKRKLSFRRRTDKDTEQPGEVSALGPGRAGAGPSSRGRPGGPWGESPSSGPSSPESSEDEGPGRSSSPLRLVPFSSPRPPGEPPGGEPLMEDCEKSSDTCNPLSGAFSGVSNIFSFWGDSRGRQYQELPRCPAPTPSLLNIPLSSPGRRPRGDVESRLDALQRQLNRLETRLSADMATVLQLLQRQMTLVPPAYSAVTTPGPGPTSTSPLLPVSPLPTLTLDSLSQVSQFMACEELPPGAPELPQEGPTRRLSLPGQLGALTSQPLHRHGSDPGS

| Compound | hERG current change (%, negative = inhibition) at 1uM |
| --- | --- |
| CNC(=O)c1ccsc1NC(=O)C1CCCN1S(=O)(=O)c1cccs1 (centres unmarked) | 17% |
| CCOC(=O)C1Cn2c(nc3c(c2=O)C(C)(C)Cc2ccccc2-3)S1 (centres unmarked) | 8.81% |
| Cc1ccc(CNC(=O)CCS(=O)(=O)c2ccc3c(c2)CC(C)N3C(=O)C2CC2)o1 (centres unmarked) | 17.6% |
| CCN(CC)C(=O)C1CCCN(Cc2ccc3c(c2)OCO3)C1 (centres unmarked) | 13.1% |
| Cc1nc(-c2cccc(S(=O)(=O)N3CCOCC3)c2)cs1 | 8.88% |
| CC(=O)Nc1ccc(NC(=O)c2c(C)noc2C)cc1 | 16.9% |
| Cc1ccccc1Nc1nccc(N(C)C)c1C#N | 9.74% |
| O=C(CSc1cccs1)Nc1ccc2ccccc2c1 | 1.11% |
| O=c1c2sccc2nc(SCc2ccc([N+](=O)[O-])cc2)n1Cc1ccccn1 | -24.8% |
| O=C(Nc1ccc2ccccc2c1)c1cc(F)c(F)cc1Cl | 15.4% |
| Cc1ccc(S(=O)(=O)CCC(=O)N2CCN(c3ccc(Cl)cc3)CC2)cc1 | 7.69% |
| CC(O)[C@@H](C(=O)N1CCNCC1)n1cc(CCCCN)nn1.Cl (some centres unmarked) | 13.1% |
| Cc1onc(-c2ccccc2)c1C(N)=O | 11.4% |
| CCCc1cc(-c2n[nH]c(C)c2-c2ccc(C(=O)OCC)o2)c(O)cc1O | 5.01% |
| Cc1ccc(-c2cc(O)cc3sc(=O)oc23)cc1C | 11.7% |
| COCCN(C(=O)Nc1ccc(OC)cc1)c1nc2ccccc2s1 | 15.3% |
| CCOc1cc(-c2noc(N)c2C(=O)OC)cc(OCC)c1OCC | 11.4% |
| COC(=O)c1cc2ccc(OC)c(OC)c2c(=O)s1 | 17.9% |
| Cc1ccc(C(=O)N2CCC(N3CCC(C(=O)N4CCOCC4)CC3)CC2)cc1C | 4.34% |

| Compound | hERG current change (%, negative = inhibition) at 1uM |
| --- | --- |
| O=C(CCCC(=O)c1ccccc1)NCc1ccccc1 | 8.58% |
| Nc1ccccc1N1CCN(C(=O)c2ccccc2)CC1 | 11.7% |
| Cc1ccnc2nc(C(=O)Nc3nc(-c4ccccn4)cs3)nn12 | 6.39% |
| O=C1CC(c2ccco2)Cc2nc(N3CCN(Cc4ccc5c(c4)OCO5)CC3)ncc21 (centres unmarked) | -0.693% |
| O=C(Cn1cc([N+](=O)[O-])cn1)Nc1ccn(Cc2c(F)c(F)cc(F)c2F)n1 | -8.28% |
| COc1ccc(NC(=S)Nc2ccc(N(C)C(C)=O)cc2)cc1 | 4.91% |
| COc1cc(C(=O)Nn2c(C)nc3ccccc3c2=O)cc(OC)c1OC | 15.5% |
| Cc1ccc(C)n1-n1cnc2scc(-c3cccs3)c2c1=O | 3.04% |
| Cc1cc(C)c(NC(=O)/C=C\C(=O)O)c([N+](=O)[O-])c1 | 7.13% |
| Cc1c(C(=O)OCC(=O)NCCN2C(=O)CSC2=O)oc2c1ccc1ccccc12 | 5.9% |
| Cc1ccccc1OCC(O)Cn1c(NCCN(C)C)nc2c1c(=O)n(C)c(=O)n2C (centres unmarked) | -0.21% |
| CN(Cc1ccccc1)C(=O)CCS(=O)(=O)c1ccc2c(c1)oc(=O)n2C | 9.53% |
| COc1ccc(OCCNC(=O)CSc2ccc(C(F)(F)F)cc2[N+](=O)[O-])cc1 | -11.4% |
| COc1cccc(C2C(C(=O)c3cc4ccccc4o3)=C(O)C(=O)N2CCN(C)C)c1OC (centres unmarked) | 7.5% |
| COc1ccc(NC(=O)C2CCCN(S(=O)(=O)c3ccc4c(c3)CCCN4C(C)=O)C2)cc1 (centres unmarked) | 14.2% |
| CCNc1nc(NCC)nc(N/N=C/c2ccc(OC)cc2)n1 | 12.1% |
| COCCCNC(=O)CNC(=O)c1nn(-c2ccc(OC)cc2)c(=O)c2ccccc12 | 11.1% |
| COc1ccc(OC)c(N(CC(=O)N2CCN(Cc3ccccc3)CC2)S(C)(=O)=O)c1 | 0.475% |
| CCCNC(=O)NC(=O)CSc1ccc2c(c1)OCCO2 | 14.5% |

| Compound | hERG current change (%, negative = inhibition) at 1uM |
| --- | --- |
| O=C1c2ccc(Oc3ccc4c(c3)C(=O)N(CCCO)C4=O)cc2C(=O)N1CCCO | 2% |
| CC1CCN(S(=O)(=O)c2cccc(C(=O)Nc3nncs3)c2)CC1 | -3.64% |
| O=C(CNC(=O)c1ccc2ccccc2c1)NCc1ccc(F)cc1 | 14.7% |
| COc1ccccc1CNCc1ccc(OC)c(OC)c1OC.O=C(O)C(=O)O | 6.76% |
| COc1ccc(Nc2ncnc3sc(-c4ccccc4)cc23)cc1 | -9.06% |
| O=C(CCn1c(=O)oc2ccccc21)N1CCN(C(c2ccccc2)c2ccccc2)CC1 | 8.6% |
| O=C(O)CSc1c2c(nc3cc(C(=O)Nc4ccc(F)c(Cl)c4)ccc13)CCCC2 | -0.861% |
| COc1cccc(NC(=O)CSc2nnc(-c3cccc(OC(C)C)c3)n2N)c1 | 19.4% |
| Cc1cc(Cl)c2oc(C(=O)N(C)Cc3cc(C)[nH]n3)c(C)c2c1 | 15.9% |
| COc1cc(/C=N/NS(=O)(=O)c2ccccc2)c(OC)c(OC)c1 | 12.4% |
| CN1C(=O)NC(c2ccccc2)C2=C1CN(CCc1ccccc1)C2=O (centres unmarked) | 7.43% |
| Clc1ccccc1Cc1noc(CN2CCN(c3cnccn3)CC2)n1 | 12.8% |
| CCc1nnc(NC(=O)c2cc(-c3ccc(C)o3)nc3ccccc23)s1 | 4.02% |
| C/C(=N\Nc1ccc(C#N)cc1[N+](=O)[O-])c1ccc(O)cc1 | 7.9% |
| Cc1ccc(OCc2nn3c(-c4ccco4)nnc3s2)cc1 | 10.6% |
| C[C@H](NC(=O)c1ccccc1Cl)C(=O)NCc1cccs1 | 22.4% |
| COc1ccc(OC)c(NC(=O)c2cc(OC(C)=O)cc(C(=O)Nc3cc(OC)ccc3OC)c2)c1 | 9.21% |
| C=CCOc1ccc2c(c1)c(=O)cc(C(=O)O)n2CC | 12.3% |
